Common to all, as to details: 20 mM HEPES pH 7.9, 100 mM NaCl, 1 mM DTT, 0.2 mg/mL BSA, 0.02% Triton X-100, 2% milk, 0.4 mg/mL salmon testes DNA; 1 h; temperature not stated; high values mean tight binding; double strand, one strand shown; sequences stand for … in GCCTAGCAC…GTGCTAGGTCTTGATTCGCTTGACGCTGCTG
One assay concerns the target PU.1 (IVT) (UniProt P17947). Description: protein-binding microarray (PBM).
Assay [1] deals with PU.1 (endogenous, THP-1 nuclear extract) (UniProt P17947). Description: nuclear extract protein-binding microarray (nextPBM).
Assay [2] deals with T1, FLI1 (endogenous, THP-1 nuclear extract) (UniProt Q01543).
T1 sequence: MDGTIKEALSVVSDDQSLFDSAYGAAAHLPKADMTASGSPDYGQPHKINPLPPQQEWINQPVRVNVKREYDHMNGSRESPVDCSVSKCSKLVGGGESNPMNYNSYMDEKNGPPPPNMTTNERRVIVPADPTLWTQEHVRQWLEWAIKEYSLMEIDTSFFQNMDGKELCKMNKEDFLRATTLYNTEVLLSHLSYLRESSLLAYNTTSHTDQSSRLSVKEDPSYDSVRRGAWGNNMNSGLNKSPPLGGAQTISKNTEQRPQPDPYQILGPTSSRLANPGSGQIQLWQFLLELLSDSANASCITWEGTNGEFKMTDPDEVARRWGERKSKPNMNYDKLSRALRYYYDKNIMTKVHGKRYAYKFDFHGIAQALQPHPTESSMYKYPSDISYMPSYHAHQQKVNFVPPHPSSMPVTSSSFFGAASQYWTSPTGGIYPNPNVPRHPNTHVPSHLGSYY
Described as above.

The other results are listed elsewhere or left out. For part of these data: At the low end of the ranking the order means little. For part of these data: Measured with an extract: partners may take part in the binding.

As for CAATACAGGAAGTGGCCAAA, the binding signal in the assay with PU.1 (IVT) turned out to be 4.62 z-score; in assay [1] it was 5.2 z-score; in assay [2] it was 4.85 z-score.
Consider GCAAAGAGGAAGTGTCTGCT, for which the binding signal in the assay with PU.1 (IVT) was found to be 6.4 z-score; in assay [1], 6.72 z-score; in assay [2] it was 3.17 z-score.
As to AAAATGAGGAAGTGGAAGGG, the binding signal with PU.1 (IVT) is 8.15 z-score; in assay [1], 7.35 z-score; in assay [2], 3.82 z-score.
Regarding AGAGGAAGGAAGTGAGAGTA, the values for the binding signal (with PU.1 (IVT); in assay [1]; in assay [2]) were 2.41 z-score, 2.56 z-score and 2.55 z-score, respectively.
Turning to GGTAAGAGGAAGTCCTCTGT, the binding signal worked out at 5.67 z-score with PU.1 (IVT), 6.26 z-score in assay [1] and 2.82 z-score in assay [2].
Consider GTAAAGAGGAAGTGAAAATG, for which the binding signal with PU.1 (IVT) worked out at 7.01 z-score; in assay [1] it was 7.09 z-score; in assay [2], 3.72 z-score.
As to GCAAACAGGAAGTCCCATAG, the figures for the binding signal (in the assay with PU.1 (IVT); in assay [1]; in assay [2]) were 4.67 z-score, 5.7 z-score and 4.86 z-score, respectively.
As for AAAGTAAGGAAGTGCTCAAG, the figures for the binding signal (with PU.1 (IVT); in assay [1]; in assay [2]) were 2.76 z-score, 2.88 z-score and 1.46 z-score, respectively.
Regarding GAAATAAGGAAGTGCTCAAA, the results for the binding signal (with PU.1 (IVT); in assay [1]; in assay [2]) were 6.62 z-score, 6.62 z-score and 2.84 z-score, respectively.
With CGGAACAGGAAGTGTGGTAC, the binding signal with PU.1 (IVT) came to 4.78 z-score; in assay [1], 5.5 z-score; in assay [2], 5.3 z-score.
In the case of GGCATGAGGAAGTGGTTCTG, the binding signal with PU.1 (IVT) was determined as 5.67 z-score; in assay [1] it was 6.07 z-score; in assay [2], 2.8 z-score.
Take AAAATGAGGAAGTACCCTCT: the binding signal in the assay with PU.1 (IVT) was 8.28 z-score; in assay [1], 7.35 z-score; in assay [2] it was 3.86 z-score.
Turning to GAAAAGAGGAAGGGGGTGAG, the binding signal came to 4.67 z-score with PU.1 (IVT), 5.36 z-score in assay [1] and 1.74 z-score in assay [2].
The like results for CGAAAGAGGAAGTGCTAAAC were, in that order, 8.01 z-score, 7.29 z-score and 3.98 z-score.
For CAAATGTGGAACTGATGCGG, the binding signal in the assay with PU.1 (IVT) worked out at 2.29 z-score; in assay [1], 2.46 z-score; in assay [2], 0.306 z-score.
AAAATGAGGAAGTGAGATAT: the binding signal with PU.1 (IVT) was 8.11 z-score; in assay [1], 7.24 z-score; in assay [2] it was 4.26 z-score.
In the case of TGAAAGAGGAAGTAGAAAAA, the binding signal with PU.1 (IVT) amounted to 7.5 z-score; in assay [1], 7.26 z-score; in assay [2], 3.66 z-score.
For the sequence GGGAGGAGGAAGTGGGTCGG, the binding signal in the assay with PU.1 (IVT) stood at 4.31 z-score; in assay [1] it was 4.66 z-score; in assay [2] it was 2.72 z-score.
Regarding CAGAAGGGGAAGTCAGAAGT, the binding signal with PU.1 (IVT) is 5.1 z-score; in assay [1], 5.46 z-score; in assay [2], 2.33 z-score.
With GAAATGAGGAAGTGATTAGG, the binding signal with PU.1 (IVT) came out at 8.13 z-score; in assay [1], 7.4 z-score; in assay [2], 3.48 z-score.
With ACAAAAAGGAACTGGCTAGA, the binding signal in the assay with PU.1 (IVT) is 2.26 z-score; in assay [1], 1.99 z-score; in assay [2] it was 0.762 z-score.
As for AAAAAAGGGAAGTGACATAC, the binding signal came out at 7.76 z-score with PU.1 (IVT), 7.33 z-score in assay [1] and 3.36 z-score in assay [2].
With TAAAAAGGGAAGTCATGACC, the binding signal with PU.1 (IVT) was 5.88 z-score; in assay [1], 6.16 z-score; in assay [2], 1.96 z-score.
In the case of TGAAAGGGGAAGTGACTTCC, the values for the binding signal (with PU.1 (IVT); in assay [1]; in assay [2]) were 7.7 z-score, 7.17 z-score and 4.5 z-score, respectively.
Consider TAAAAGAGGAAGTCCTCTTT, for which the values for the binding signal (with PU.1 (IVT); in assay [1]; in assay [2]) were 7.92 z-score, 7.49 z-score and 3.7 z-score, respectively.
For the sequence GAAAACAGGAAGTACCATAG, the binding signal with PU.1 (IVT) came out at 7.62 z-score; in assay [1], 7.18 z-score; in assay [2], 4.77 z-score.
Consider CAAAAAGGGAAGTGGTTGCT, for which the figures for the binding signal (with PU.1 (IVT); in assay [1]; in assay [2]) were 6.85 z-score, 6.82 z-score and 2.83 z-score, respectively.
Consider AGAAAAGGGAAGCGGTCTGT, for which the figures for the binding signal (with PU.1 (IVT); in assay [1]; in assay [2]) were 4.32 z-score, 4.43 z-score and 1.93 z-score, respectively.
The like results for AAAAAGGGGAAGTCATCTAT were, in that order, 8.05 z-score, 7.41 z-score and 4.07 z-score.
As to AAAAAGGAGAAGTCACTGTG, the binding signal in the assay with PU.1 (IVT) turned out to be 5.48 z-score; in assay [1] it was 6.1 z-score; in assay [2] it was 1.86 z-score.
With AGTAGGGGGAAGTGTGCATG, the binding signal with PU.1 (IVT) was found to be 3.65 z-score; in assay [1] it was 3.27 z-score; in assay [2], 1.82 z-score.
On to AAAAAAGGGAAGTGTTGGAG, for which the binding signal with PU.1 (IVT) amounted to 7.46 z-score; in assay [1], 6.99 z-score; in assay [2] it was 2.81 z-score.
Take AGAGGGAGGAAGTGGTGCAG: the binding signal turned out to be 3.63 z-score with PU.1 (IVT), 3.24 z-score in assay [1] and 2.55 z-score in assay [2].
In the case of CAAAAGAGGAACTGCTGCTG, the binding signal in the assay with PU.1 (IVT) was 6.83 z-score; in assay [1], 6.87 z-score; in assay [2], 2.72 z-score.
The corresponding values for GAAAAGAGGAAGTCATCTTC are 8.33 z-score, 7.29 z-score and 4.26 z-score.
On to AAAATCAGGAACTGGGTGGA, for which the binding signal with PU.1 (IVT) worked out at 3.7 z-score; in assay [1] it was 4.16 z-score; in assay [2], 1.46 z-score.
For the sequence CAAATGAGGAACTGATGCGA, the binding signal with PU.1 (IVT) is 6.15 z-score; in assay [1] it was 6.63 z-score; in assay [2] it was 2.32 z-score.
For GAAATAAGGAAGTGCTAACA, the binding signal with PU.1 (IVT) worked out at 6.6 z-score; in assay [1], 6.61 z-score; in assay [2] it was 2.62 z-score.
The like results for AGAAAGAGGAAGTGAAGCTA were, in that order, 8.64 z-score, 7.27 z-score and 4.46 z-score.
Turning to AAAAAGAGGAAATGTAAATG, the binding signal amounted to 6.13 z-score with PU.1 (IVT), 5.82 z-score in assay [1] and 2.91 z-score in assay [2].
In the case of GAAATGGGGAAGTGAGACAG, the values for the binding signal (with PU.1 (IVT); in assay [1]; in assay [2]) were 6.75 z-score, 6.77 z-score and 3.11 z-score, respectively.
Consider GATTAGAGGAAGTCCTCTGT, for which the binding signal with PU.1 (IVT) stood at 5.25 z-score; in assay [1], 5.36 z-score; in assay [2] it was 2.46 z-score.
In the case of TCATTAGGGAAGTGAAGCCC, the binding signal in the assay with PU.1 (IVT) was found to be 3.63 z-score; in assay [1], 4.07 z-score; in assay [2], 1.34 z-score.
Turning to TAAAAGAGGAAGTCCTCTTG, the figures for the binding signal (with PU.1 (IVT); in assay [1]; in assay [2]) were 8.14 z-score, 7.3 z-score and 3.91 z-score, respectively.
For AGAAGGGGGAAGTGGAATCC, the binding signal in the assay with PU.1 (IVT) worked out at 4.98 z-score; in assay [1] it was 5.62 z-score; in assay [2], 2.12 z-score.
As for AAAAGAAGGAAGTCCCCTGC, the results for the binding signal (with PU.1 (IVT); in assay [1]; in assay [2]) were 4.71 z-score, 5.56 z-score and 1.89 z-score, respectively.
In the case of GCTAAAAGGAAGTGTCAAGT, the binding signal with PU.1 (IVT) stood at 2.47 z-score; in assay [1], 2.33 z-score; in assay [2], 2.25 z-score.
Regarding GCCATAGGGAAGTGCTCTAG, the binding signal with PU.1 (IVT) stood at 4.04 z-score; in assay [1] it was 4.4 z-score; in assay [2], 1.72 z-score.
In the case of AGCATGAGGAAGTGGGACCT, the binding signal was 4.6 z-score in the assay with PU.1 (IVT), 5.25 z-score in assay [1] and 2.37 z-score in assay [2].
Consider AAGAAAGAGAACTACTGTGA, for which the figures for the binding signal (with PU.1 (IVT); in assay [1]; in assay [2]) were 0.933 z-score, 1.08 z-score and -0.212 z-score, respectively.
The corresponding values for GGGAAAAGGAAGTCTTCTTT are 3.35 z-score, 2.91 z-score and 2.37 z-score.
The corresponding values for TACATGAGGAAGTGCCTGAG are 5.04 z-score, 5.2 z-score and 2.34 z-score.
Regarding AAAAAGAGGAAGTGATGACC, the binding signal amounted to 8.84 z-score with PU.1 (IVT), 7.31 z-score in assay [1] and 4.74 z-score in assay [2].
Consider AGACAGGGGAAGTGGAGGCC, for which the binding signal with PU.1 (IVT) was determined as 3.21 z-score; in assay [1], 2.92 z-score; in assay [2], 1.63 z-score.
On to AAAAATAGGAAGTGCTGGAG, for which the results for the binding signal (in the assay with PU.1 (IVT); in assay [1]; in assay [2]) were 5.76 z-score, 5.85 z-score and 3.13 z-score, respectively.
GAAAAGAGGAACTCTTGCTC: the binding signal with PU.1 (IVT) is 7.1 z-score; in assay [1] it was 6.84 z-score; in assay [2], 3.36 z-score.
The like results for CCTAAGAGGAACTCCCTCAT were, in that order, 2.89 z-score, 3.19 z-score and 0.898 z-score.
TGAAAGAGGAAGTGGAACCA: the figures for the binding signal (with PU.1 (IVT); in assay [1]; in assay [2]) were 7.75 z-score, 7.45 z-score and 3.97 z-score, respectively.
With GAAAACAGGAAGGCCCATAG, the binding signal in the assay with PU.1 (IVT) turned out to be 2.91 z-score; in assay [1], 3.05 z-score; in assay [2], 2.16 z-score.
Take AGGAAAAGGAAGTGGCTTTG: the binding signal turned out to be 3.82 z-score with PU.1 (IVT), 3.97 z-score in assay [1] and 2.94 z-score in assay [2].

Source of the values: publication PMC6451091.
